From PubChem BioAssay (NCATS)
Inconclusive means that the source gave no clear call. Such entries were picked first, then a sample of the others. Potencies of inconclusive entries are doubtful fits and often do not repeat. Activity calls are given as the source filed them. Calls come from the whole dose curve; as a rule, active = well fitted activation curve with a large enough effect in the main read-out, with a control signal flat (not every such curve was filed as active); inconclusive = small, poorly fitted or top-dose-only effect, or effect the other way, or a change in a side signal; inactive = flat fitted curve, though single readings scatter.

target: 3',5'-cyclic-AMP phosphodiesterase 4B (Homo sapiens) (UniProt Q07343); assay: qHTS Assay for Inhibitors of PDE-IV (AID 607); details: HEK293 ACTOne CNG channel cells, membrane potential fluorescence; series mostly up to 22.9 µM
UniProt Q07343, sequence (Q07343 whole entry, looked up): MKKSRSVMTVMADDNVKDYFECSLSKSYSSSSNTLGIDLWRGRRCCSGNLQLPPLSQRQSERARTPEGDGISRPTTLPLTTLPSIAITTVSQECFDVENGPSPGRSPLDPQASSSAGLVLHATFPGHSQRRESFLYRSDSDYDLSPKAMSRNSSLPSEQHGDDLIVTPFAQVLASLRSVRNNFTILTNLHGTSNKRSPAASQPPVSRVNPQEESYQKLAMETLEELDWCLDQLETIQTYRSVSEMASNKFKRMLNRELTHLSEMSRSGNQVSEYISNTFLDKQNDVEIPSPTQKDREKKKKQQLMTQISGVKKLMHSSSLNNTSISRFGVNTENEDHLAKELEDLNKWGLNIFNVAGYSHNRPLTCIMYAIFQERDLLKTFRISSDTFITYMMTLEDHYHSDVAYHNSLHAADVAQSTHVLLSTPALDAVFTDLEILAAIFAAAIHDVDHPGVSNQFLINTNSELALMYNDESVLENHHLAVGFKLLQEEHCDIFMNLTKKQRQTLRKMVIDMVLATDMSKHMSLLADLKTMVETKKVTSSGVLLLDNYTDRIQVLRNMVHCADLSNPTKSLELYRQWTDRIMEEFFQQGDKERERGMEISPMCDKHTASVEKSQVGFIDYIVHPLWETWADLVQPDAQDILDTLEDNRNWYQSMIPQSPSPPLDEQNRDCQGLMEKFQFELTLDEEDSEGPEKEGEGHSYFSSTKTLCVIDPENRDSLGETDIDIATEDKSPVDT
Method in brief: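 Live HEK293 cells with a modified cyclic nucleotide-gated (CNG) channel report intracellular cAMP via membrane-potential dye fluorescence (ex 535/em 590 nm). Endogenous PDE-IV was targeted. Compounds were tested at up to 22.9 uM final; RO 20-1724 100 uM served as control.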
Potency is the fitted concentration of half-maximal effect; tags give direction and shape of the fitted curve.

Potency, inconclusive:
O=c1[nH]c2cc(Cl)ccc2c(O)c1-c1cccc(Oc2ccccc2)c1 15.1 µM [inhibitor, partial curve]
C=C[C@@]1(C)CC(=O)[C@@]2(O)[C@@]3(C)[C@@H](O)CCC(C)(C)[C@@H]3[C@H](O)[C@H](OC(C)=O)[C@@]2(C)O1 0.0151 µM [rising, full curve]
CCCC[C@@H]1C[C@H]1C(NC(=O)Cc1ccccc1)c1ccc(-c2ccccc2)cc1 (stereo not given in full) 3.16 µM [activator, partial curve]
CCCC[C@@H]1C[C@H]1C(NC(=O)c1ccco1)c1ccccc1C(F)(F)F (stereo not given in full) 7.94 µM [rising, partial curve]
CCC[C@@H]1C[C@@]1(CCC)C(NS(=O)(=O)c1cccc2cccnc12)c1ccc(Cl)cc1 (stereo not given in full) 10 µM [rising, partial curve]
CCCC[C@@H]1C[C@H]1C(NC(=O)c1ccccc1)c1ccc(C(=O)OC)cc1 (stereo not given in full) 10 µM [rising, partial curve]
Nc1nc(SCc2ccccn2)c2ncn(C3CCCC3)c2n1 12.6 µM [activator, single point]
COCCn1c(=O)c(-c2cn(C)c3ccccc23)nc2cncnc21 3.98 µM [activator, partial curve]
CCC/C=C(\CCC)C(NP(=O)(c1ccccc1)c1ccccc1)c1ccc(-c2ccccc2)cc1 (stereo not given) 6.31 µM [rising, partial curve]
CCCC/C=C/C(NC(=O)c1ccc(C(=O)OC)cc1)c1ccccc1 (stereo not given) 10 µM [rising, single point]
CCC(=O)O[C@H](CC(=O)O)C[N+](C)(C)C 19 µM [activator, single point]
COc1ncc2nc(CCc3ccccc3)c(=O)n(Cc3cccs3)c2n1 10 µM [activator, single point]
O=c1ccc2cc3ccoc3cc2o1 15.1 µM [activator, partial curve]
Cc1nc2cnc(N(C)C)nc2n(C[C@H]2CCCO2)c1=O 10 µM [activator, partial curve]
CCCCNC(=O)[C@@H]1Cc2ccccc2N1C(=O)[C@H](N)CC 19 µM [inhibitor, single point]
O=C(O)/C=C\C(=O)Nc1ccc2c(c1)C(=O)c1cc(F)ccc1-2 1 µM [inhibitor, single point]
COc1ccccc1-c1cc(NCc2cccnc2)ncn1 5.01 µM [activator, partial curve, poor fit]
COc1ccc(CNc2ccnc(-c3ccc4c(c3)OCO4)n2)c(OC)c1 12.6 µM [rising, partial curve]
CN1Cc2c(C(=O)OC(C)(C)C)ncn2-c2ccsc2C1=O 19 µM [inhibitor, single point]

Potency, inactive:
CC(C)C1=C[C@@]23CC[C@@H]4[C@](C)(CCC[C@@]4(C)C(=O)O)[C@@H]2C[C@@H]1[C@@H](C(=O)O)[C@@H]3C(=O)O
COc1ccc([C@H](O)c2ccccn2)cc1
CC12CC[C@@H]3c4ccc(OP(=O)(O)O)cc4CCC3C1CCC2=O (stereo not given in full)
O=C(N[C@@H](c1ccccc1)[C@@H]1C[C@H]1C(=O)O)OCc1ccccc1
COC(=O)C1(CC(C)C)C=C2C(=C(C(C)C)C(=O)C2C)CN1 (stereo not given)
CC(=O)O[C@H]1CC[C@]2(C)C(=CC[C@H]3[C@H]4C[C@H]5O[C@]6(CC[C@H](C)CN6)[C@H](C)[C@@H]5[C@]4(C)CC[C@@H]32)C1
CC[C@@H]1OC(=O)[C@@H](C)[C@H](O[C@@H]2C[C@@](C)(OC)[C@@H](O)[C@H](C)O2)[C@H](C)[C@H](O[C@@H]2O[C@@H](C)C[C@@H](N(C)C)[C@H]2O)[C@@](C)(O)C[C@H](C)C(=O)[C@@H](C)[C@H](O)[C@@]1(C)O
O=C1C2[C@@H](c3ccccc3)N[C@@H](c3ccccc3)C1[C@H](c1ccccc1)N[C@H]2c1ccccc1
COC(=O)[C@@]1(Cc2ccccc2)[C@@H]2[C@@H](CC(=O)[C@H]2CC(=O)C(=O)N(C)C)CN1C(=O)c1ccccc1
Cc1noc(C)c1C(=O)N1CCC[C@@]2(CCN(C(=O)Nc3cccc(F)c3)C2)C1
O=C(O)CCCc1ccc2ccc3ccccc3c2c1
COC(=O)[C@@]1(Cc2ccc(OC)cc2)[C@H]2c3cc(C(=O)N4CCCC4)n(CCN4CCOCC4)c3C[C@H]2CN1C(=O)c1ccccc1
N=C(CC(=O)Nc1ccccn1)c1ccccc1
Cc1cnc(CNc2ccnc(-c3ccccc3Cl)n2)cn1
Nc1nc(SCC(=O)c2ccc(Br)cc2)c2[nH]cnc2n1
CN(CC(=O)O)Cc1oc(CO)cc(=O)c1O
O=S(=O)(c1cnccc1N1CCN(CCO)CC1)N1CCCC1
O=C(Nc1ccccc1)N1CC2(CCN(C(=O)c3cccc(F)c3)CC2)C1
NCCC[C@@H](N)C(=O)O
O=C(O)C[C@H](Cc1ccc2c(c1)OCO2)C(=O)O
COC(=O)C1CC1C(NC(=O)[C@H]1CCCCN1)c1ccccc1 (stereo not given in full)
